Experimental data published in patent publication US4416899A, “Antibiotic BMG162-aF2, a process for production thereof, and antitumor drug containing said new antibiotic as active ingredient” (priority 1980, dated 1983).

Legend:
[1] = tested on: Staphylococcus aureus FDA209P; test: Antibacterial activity, agar dilution method (Table 2-1); format: cell-based; conditions: nutrient agar, 37° C., hydrochloride, read-out: Minimum inhibitory concentration
Micrococcus flavus FDA16 = test: as above; format: cell-based; conditions: nutrient agar, 37° C., hydrochloride, read-out: Minimum inhibitory concentration
[2] = tested on: Micrococcus lysodeikticus IFO3333; test: as above; format: cell-based; conditions: Micrococcus luteus, nutrient agar, 37° C., hydrochloride, read-out: Minimum inhibitory concentration
[3] = tested on: Bacillus cereus ATCC 10702; test: as above; format: cell-based; conditions: ATCC10702, nutrient agar, 37° C., hydrochloride, read-out: Minimum inhibitory concentration
[4] = tested on: Corynebacterium bovis 1810; test: as above; format: cell-based; conditions: nutrient agar, 37° C., hydrochloride, read-out: Minimum inhibitory concentration
Escherichia coli NIHJ = test: as above; format: cell-based; conditions: nutrient agar, 37° C., hydrochloride, read-out: Minimum inhibitory concentration
Escherichia coli K-12 = test: as above; format: cell-based; conditions: K12, nutrient agar, 37° C., hydrochloride, read-out: Minimum inhibitory concentration
Escherichia coli ML1629 = test: as above; format: cell-based; conditions: nutrient agar, 37° C., hydrochloride, read-out: Minimum inhibitory concentration
[5] = tested on: Shigella dysenteriae JS11910; test: as above; format: cell-based; conditions: JS11910, read-out: Minimum inhibitory concentration
Salmonella enteritidis = test: as above; format: cell-based; conditions: Salmonella enterica, nutrient agar, 37° C., hydrochloride, read-out: Minimum inhibitory concentration
[6] = tested on: Proteus mirabilis IFM OM-9; test: as above; format: cell-based; conditions: IFMOM9, nutrient agar, 37° C., hydrochloride, read-out: Minimum inhibitory concentration
Proteus rettgeri GN311 = test: as above; format: cell-based; conditions: Providencia rettgeri, nutrient agar, 37° C., hydrochloride, read-out: Minimum inhibitory concentration
Proteus rettgeri GN466 = test: as above; format: cell-based; conditions: Providencia rettgeri, nutrient agar, 37° C., hydrochloride, read-out: Minimum inhibitory concentration
Serratia marcescens = test: as above; format: cell-based; conditions: nutrient agar, 37° C., hydrochloride, read-out: Minimum inhibitory concentration
[7] = tested on: Pseudomonas aeruginosa A3; test: as above; format: cell-based; conditions: nutrient agar, 37° C., hydrochloride, read-out: Minimum inhibitory concentration
[8] = tested on: Klebsiella pneumoniae PCI602; test: as above; format: cell-based; conditions: nutrient agar, 37° C., hydrochloride, read-out: Minimum inhibitory concentration
[9] = tested on: Mycobacterium smegmatis ATCC 607; test: as above; format: cell-based; conditions: Mycolicibacterium smegmatis, ATCC607; nutrient agar, 37° C.; hydrochloride; read-out: Minimum inhibitory concentration
Candida tropicalis F-1 = test: Antibacterial activity, agar dilution method (Table 2-3); format: cell-based; conditions: F1, nutrient agar + 1% glucose, 27° C., hydrochloride, read-out: Minimum inhibitory concentration
[10] = tested on: Candida pseudotropicalis NI7494; test: as above; format: cell-based; conditions: Kluyveromyces marxianus, nutrient agar + 1% glucose, 27° C., hydrochloride, read-out: Minimum inhibitory concentration
Candida albicans 3147 = test: as above; format: cell-based; conditions: nutrient agar + 1% glucose, 27° C., hydrochloride, read-out: Minimum inhibitory concentration
Cryptococcus neogormans = test: as above; format: cell-based; conditions: nutrient agar + 1% glucose, 27° C., hydrochloride, read-out: Minimum inhibitory concentration
[11] = tested on: Pellicularia filamentosa sasakii; test: as above; format: cell-based; conditions: nutrient agar + 1% glucose, 27° C.; hydrochloride; read-out: Minimum inhibitory concentration
Aspergillus niger = test: as above; format: cell-based; conditions: nutrient agar + 1% glucose, 27° C., hydrochloride, read-out: Minimum inhibitory concentration
[12] = tested on: Trichophyton asteroides 429; test: as above; format: cell-based; conditions: nutrient agar + 1% glucose, 27° C., hydrochloride, read-out: Minimum inhibitory concentration
[13] = Stability / hydroscopicity; format: physicochemical; conditions: free base form
mouse leukemia L1210 = test: Effect on mouse leukemia L1210 (ip-ip system); conditions: hydrochloride
Vibrio anguillarum NCBM6 = test: Antibacterial activity, agar dilution method (Table 2-2); conditions: NCBM6, read-out: Minimum inhibitory concentration
Pseudomonas fluorescens = test: as above; conditions: read-out: Minimum inhibitory concentration
Erwinia aroideae = test: as above; conditions: Pectobacterium carotovorum, read-out: Minimum inhibitory concentration

Question: Which MIC [1] does the source give for `N=C(N)NCCCCC(O)CC(=O)NC(O)C(=O)NCCCCNCCCN` (centres unmarked) [BMG162-aF2] here?
Answer: 100 µg/mL (≈ 248 µM)

Question: What about the MIC (Micrococcus flavus FDA16) of the same compound?
Answer: 25 µg/mL (≈ 62 µM)

Question: What about the MIC [2] of the same compound?
Answer: 100 µg/mL (≈ 248 µM)

Question: And the MIC [3]?
Answer: > 100 µg/mL

Question: What about the MIC [4] of the same compound?
Answer: 50 µg/mL (≈ 124 µM)

Question: And the MIC (Escherichia coli NIHJ)?
Answer: > 100 µg/mL

Question: And the MIC (Escherichia coli K-12)?
Answer: 100 µg/mL (≈ 248 µM)

Question: And the MIC (Escherichia coli ML1629)?
Answer: > 100 µg/mL

Question: And the MIC [5]?
Answer: 100 µg/mL (≈ 248 µM)

Question: And the MIC (Salmonella enteritidis)?
Answer: > 100 µg/mL

Question: What about the MIC [6] of the same compound?
Answer: > 100 µg/mL

Question: What about the MIC (Proteus rettgeri GN311) of the same compound?
Answer: > 100 µg/mL

Question: What about the MIC (Proteus rettgeri GN466) of the same compound?
Answer: > 100 µg/mL

Question: And the MIC (Serratia marcescens)?
Answer: > 100 µg/mL

Question: What about the MIC [7] of the same compound?
Answer: > 100 µg/mL

Question: What about the MIC [8] of the same compound?
Answer: > 100 µg/mL

Question: And the MIC [9]?
Answer: > 100 µg/mL

Question: What about the MIC (Candida tropicalis F-1) of the same compound?
Answer: > 100 µg/mL

Question: And the MIC [10]?
Answer: > 100 µg/mL

Question: What about the MIC (Candida albicans 3147) of the same compound?
Answer: > 100 µg/mL

Question: What about the MIC (Cryptococcus neogormans) of the same compound?
Answer: > 100 µg/mL

Question: What about the MIC [11] of the same compound?
Answer: > 100 µg/mL

Question: And the MIC (Aspergillus niger)?
Answer: 100 µg/mL

Question: What about the MIC [12] of the same compound?
Answer: > 100 µg/mL

Question: What about the stability [13] of the same compound?
Answer: unstable in the form of the free base

Question: And the “effect on mouse leukemia L1210” value (mouse leukemia L1210)?
Answer: remarkable effects of cure and elongation of survival period

Question: What about the MIC (Vibrio anguillarum NCBM6) of the same compound?
Answer: 50 µg/mL (≈ 124 µM)

Question: And the MIC (Pseudomonas fluorescens)?
Answer: > 100 µg/mL

Question: What about the MIC (Erwinia aroideae) of the same compound?
Answer: 50 µg/mL (≈ 124 µM)

Converted amounts (≈) assume the structure as drawn.
